Drawing on PMC4242493, this text covers binding signal (normalized occupancy) for 172 sequences.

This is one part of the list. The list includes weakly bound sequences.

For this test, the target named is MaxL homodimer (UniProt P61244). In words: universal protein-binding microarray (PBM). The settings on record: PBS-based mixture, 10 nM His-tagged protein dimer, 2% milk, 200 ng/uL BSA, 50 ng/uL salmon testes DNA, 0.02% TX-100; detection with Alexa 488 anti-His …; high values mean tight binding; most listed sequences are background and not binding sites; double strand, one strand shown.
UniProt P61244, sequence (P61244 whole entry): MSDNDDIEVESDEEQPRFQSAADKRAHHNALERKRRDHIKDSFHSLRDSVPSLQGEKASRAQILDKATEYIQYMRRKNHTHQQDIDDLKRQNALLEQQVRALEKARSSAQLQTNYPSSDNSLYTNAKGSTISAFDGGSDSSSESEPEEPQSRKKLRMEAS
Consider TGCTCAAA, for which the binding signal (normalized occupancy) worked out at 0.0745.
The value for ACGCTGTG was 0.0735; that for AATGGTCT was 0.0762.
The value for ACACCGGC was 0.0707.
As for ACCAGAAA, the binding signal (normalized occupancy) was 0.0769.
With ATGAGGCG, the binding signal (normalized occupancy) was found to be 0.077.
The value for CTCGCCAC was 0.0793; that for CGATTCTA was 0.0764.
As for AGGTTCTG, the binding signal (normalized occupancy) is 0.0772.
With ATTAAGAA, the binding signal (normalized occupancy) amounted to 0.0754.
The value for AGTCTCGA was 0.0741.
Next, GATTGGCA: 0.0769; GCGATAGC: 0.0715.
Next, GAAATGGC: 0.0704; AGATAGGG: 0.0734; CGTGACGA: 0.0815.
Consider CTTGGGAA, for which the binding signal (normalized occupancy) is 0.0688.
Next, CACCAGGC: 0.0736; CACCCGTA: 0.0782; TAAACCGA: 0.0706.
The value for AGTTCAGC was 0.0711; that for CCCTCTAG was 0.0703; that for GCGGATCC was 0.0685.
Next, CCTCTGAG: 0.0687; AAAAGGCG: 0.0698.
Regarding AGGTCACA, the binding signal (normalized occupancy) stood at 0.0775.
The value for AGGAGGAC was 0.0737; that for AGAAGGCA was 0.0834; that for GTCAAATA was 0.0793.
The value for CTCGACAA was 0.0725.
Next, CACATAAG: 0.0781; GGCTTAAC: 0.0703.
Regarding AAAACTCA, the binding signal (normalized occupancy) stood at 0.0783.
For GTCGGACA, the binding signal (normalized occupancy) is 0.073.
Next, AGGGAGCC: 0.0674; AAAGAAGA: 0.0797.
In the case of AAGCATGT, the binding signal (normalized occupancy) came to 0.0997.
As for TAGGCTCA, the binding signal (normalized occupancy) was 0.0762.
The value for CAACGCGA was 0.0767; that for AGAATCAC was 0.074; that for ACTGAGTA was 0.0741.
As to CTTGTGAC, the binding signal (normalized occupancy) worked out at 0.077.
Next, CTATTACA: 0.083; ACAGCCAA: 0.0735.
AACTAACC: the binding signal (normalized occupancy) came to 0.074.
Next, CAGTCATG: 0.0864.
Next, CATAGGGA: 0.076.
Next, AATATCTA: 0.0771; CTTAGCTC: 0.0685.
In the case of CGATGCAC, the binding signal (normalized occupancy) stood at 0.0796.
The value for CTATGGCA was 0.0779; that for AGTATATA was 0.0822.
In the case of GACCTACC, the binding signal (normalized occupancy) came out at 0.0705.
The value for CATCGCGA was 0.0728; that for AGAACCAC was 0.0811.
Next, AAACTGAA: 0.0754; ATCTCGCA: 0.0744; GCAATCCA: 0.0751.
Next, CGCTGATA: 0.0746; AGGTTCAA: 0.0758; CTTAATAC: 0.0786.
For the sequence ACCATTAG, the binding signal (normalized occupancy) came to 0.0781.
Consider ATCTTGGG, for which the binding signal (normalized occupancy) was 0.0805.
Next, AAGGGTCT: 0.0758; GGGGGCGA: 0.0744.
For AATAGCTA, the binding signal (normalized occupancy) was 0.0703.
In the case of ACTGCACA, the binding signal (normalized occupancy) stood at 0.0759.
Next, CGTAAACC: 0.0766; AAGACCAT: 0.0781; GGATGGGA: 0.0795.
The value for ACCCGATC was 0.0753.
The value for CAGCCGTA was 0.0699; that for ACAGACTA was 0.0749; that for CCGACGCG was 0.0755.
For CGGCGAGA, the binding signal (normalized occupancy) worked out at 0.0704.
On to CGTTGATA, for which the binding signal (normalized occupancy) was determined as 0.0836.
Next, TCACTGCA: 0.075; CTAGAGCC: 0.0723; AGTTATCC: 0.0764.
For the sequence CAAGGTGG, the binding signal (normalized occupancy) was 0.0807.
Take AAGCAGGA: the binding signal (normalized occupancy) turned out to be 0.0763.
Next, GCGTTTAA: 0.077; GAATTACC: 0.072; ACACTCAT: 0.0864.
Regarding CGGCGCGC, the binding signal (normalized occupancy) is 0.0738.
Next, AGATGCAA: 0.0764; GAAAGATA: 0.0832.
In the case of AGATTTAC, the binding signal (normalized occupancy) is 0.0746.
The value for AATCAGGG was 0.078.
Next, TGCTGAAA: 0.0767; GCTGGGGA: 0.0757.
Next, AAGGCATG: 0.0988; GCTTACGA: 0.0728; TCCATTCA: 0.0754.
As for GCACAAGC, the binding signal (normalized occupancy) was found to be 0.0786.
Next, ATCATTTG: 0.078.
The value for GCCTCATA was 0.0768; that for GGACACAC was 0.0782.
For the sequence GTAGAGAA, the binding signal (normalized occupancy) was 0.0715.
Consider TAATTGAA, for which the binding signal (normalized occupancy) worked out at 0.0725.
Next, AATGTAAC: 0.0797.
Next, TATATCGA: 0.077.
On to CCCCGCTA, for which the binding signal (normalized occupancy) stood at 0.0726.
Turning to CTTCATTA, the binding signal (normalized occupancy) turned out to be 0.0765.
Next, CTACGAAC: 0.0739; CTCCGTAA: 0.0707.
The value for CAAAGTTA was 0.0749; that for CGACTTCA was 0.0712; that for CACCTCAA was 0.0776.
Next, ATAGCCAA: 0.0695.
For the sequence AGTGCTCC, the binding signal (normalized occupancy) is 0.0707.
The value for CCTCCGTC was 0.0676; that for AAAGGGCA was 0.0744; that for GCTGTTCC was 0.069.
For the sequence AACTCACA, the binding signal (normalized occupancy) was 0.0776.
The value for CAGACCAC was 0.0815; that for ATCATTAG was 0.0789; that for CAGCTTTC was 0.0677.
With CCCGCCTC, the binding signal (normalized occupancy) turned out to be 0.0782.
The value for CCATTTTC was 0.0787.
The value for CCCAAAAA was 0.0755; that for CCGGCGCA was 0.0737; that for AAGTGTGG was 0.0819.
The value for CCCAATAC was 0.0788; that for AAAGGCTG was 0.0716.
For GACGACGA, the binding signal (normalized occupancy) was determined as 0.0747.
Next, CCAAACAG: 0.074; AGAGCTAG: 0.0738; CATGAACC: 0.0813.
Next, CCATTCGG: 0.0809; AGCACGCG: 0.156.
The value for ACCTACTA was 0.0743; that for CATCGAAA was 0.0708; that for ACTACCAG was 0.0758.
Turning to GGTTCACA, the binding signal (normalized occupancy) amounted to 0.0775.
Next, ATGCTGCC: 0.0877.
The value for AAACAACC was 0.0764.
For the sequence GGGTTCCA, the binding signal (normalized occupancy) amounted to 0.0735.
For the sequence CATCCTTC, the binding signal (normalized occupancy) was 0.0759.
The value for GAGCGTGA was 0.0923.
Next, AATCAATT: 0.0777; AGGTGTGC: 0.0866; GGAGCTAA: 0.0724.
Next, GTGTGAGA: 0.0806; ACCGTCTC: 0.0705; GATAGCAA: 0.0805.
In the case of GGATCTGA, the binding signal (normalized occupancy) came to 0.0762.
The value for GCTGACGA was 0.072; that for CTACCTGA was 0.0756.
Turning to ATGCCTCA, the binding signal (normalized occupancy) was 0.0931.
The value for GGTGCCCA was 0.0744; that for GAACCGTC was 0.0675; that for CCCGCGTA was 0.073.
Next, GCACCCCC: 0.0761; GGAACTAA: 0.0752.
For the sequence ACCTTCTG, the binding signal (normalized occupancy) stood at 0.0705.
As for AAGTAAGA, the binding signal (normalized occupancy) worked out at 0.0765.
The value for CGCCGACC was 0.0727; that for AGTTCATC was 0.0772.
The value for AATTAAGG was 0.0739; that for ATCATAGA was 0.0779.
The value for AACGCGGC was 0.0757; that for CATGGACC was 0.0885; that for AAATGATC was 0.077.
Consider CGCAGGCA, for which the binding signal (normalized occupancy) was found to be 0.0706.
Next, TGAATACA: 0.0789; GGACGTGA: 0.0764; CAGAAAGC: 0.0706.
For ATACAGTA, the binding signal (normalized occupancy) was 0.0872.
The value for AATGCCAT was 0.0805.
The value for TTCCCAAA was 0.0752; that for AGGGCTTG was 0.0687.
